In PMC4336329 (PLoS ONE, 2015):
Among all 310,000 compounds or so, about 14,000 (4.5%) showed an effect of 50% or more. The effect is printed as a negative number. Some of the results follow.

The molecules below were run against human ether-à-go-go-related gene (hERG) potassium channel (human, UniProt Q12809) (assay: primary screen, population patch clamp on CHO cells stably expressing hERG).
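Further: peak tail current of the secondary pulse compared with the same well before compound.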

human ether-à-go-go-related gene (hERG) potassium channel, sequence (Q12809 whole entry, looked up): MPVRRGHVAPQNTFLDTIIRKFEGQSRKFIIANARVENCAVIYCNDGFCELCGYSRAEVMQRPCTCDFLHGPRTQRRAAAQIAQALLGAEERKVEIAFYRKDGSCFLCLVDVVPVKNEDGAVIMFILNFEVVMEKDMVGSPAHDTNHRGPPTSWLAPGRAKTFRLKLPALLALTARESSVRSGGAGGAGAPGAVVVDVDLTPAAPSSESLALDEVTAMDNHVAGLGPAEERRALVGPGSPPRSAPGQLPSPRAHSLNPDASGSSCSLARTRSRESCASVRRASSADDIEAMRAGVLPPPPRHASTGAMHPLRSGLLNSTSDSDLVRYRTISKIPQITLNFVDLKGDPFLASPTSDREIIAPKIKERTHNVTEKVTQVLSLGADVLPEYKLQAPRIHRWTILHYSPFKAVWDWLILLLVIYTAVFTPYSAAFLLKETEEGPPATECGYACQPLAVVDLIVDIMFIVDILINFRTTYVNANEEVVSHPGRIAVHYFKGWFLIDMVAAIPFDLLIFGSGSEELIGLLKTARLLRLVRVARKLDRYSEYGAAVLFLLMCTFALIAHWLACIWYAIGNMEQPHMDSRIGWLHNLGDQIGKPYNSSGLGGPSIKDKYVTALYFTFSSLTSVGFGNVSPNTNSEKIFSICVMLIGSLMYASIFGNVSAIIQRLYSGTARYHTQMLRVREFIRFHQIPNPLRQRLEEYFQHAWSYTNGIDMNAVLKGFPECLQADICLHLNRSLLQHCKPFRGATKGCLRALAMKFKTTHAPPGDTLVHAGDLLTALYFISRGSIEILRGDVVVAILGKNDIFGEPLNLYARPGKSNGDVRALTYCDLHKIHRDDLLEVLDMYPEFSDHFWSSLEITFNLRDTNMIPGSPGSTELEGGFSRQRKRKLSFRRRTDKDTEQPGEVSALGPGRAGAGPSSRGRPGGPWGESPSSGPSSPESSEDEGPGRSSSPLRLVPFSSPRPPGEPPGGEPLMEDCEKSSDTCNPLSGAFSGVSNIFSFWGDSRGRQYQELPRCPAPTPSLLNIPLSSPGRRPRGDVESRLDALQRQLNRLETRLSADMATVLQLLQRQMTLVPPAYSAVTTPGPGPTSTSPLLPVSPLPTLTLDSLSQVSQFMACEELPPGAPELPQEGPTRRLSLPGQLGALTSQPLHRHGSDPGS

Row | SMILES | hERG current change (%, negative = inhibition) at 10uM [%]
1 | CCN1CCN(C(=O)Nc2cccc(C(F)(F)F)c2)CC1 | 9.24
2 | CC(=C/c1ccccc1)/C=N/NC(=O)c1nnn(-c2nonc2N)c1CN1CCC(C)CC1 | 19.9
3 | Cc1ccc2cc(C(=O)O)c(C)nc2c1 | 11.6
4 | CCOC(=O)COc1cccc2c(=O)n(CC(=O)N3CCCCC3)ccc12 | -2.54
5 | O=C(COC(=O)c1cccnc1Nc1cccc(C(F)(F)F)c1)NCCN1C(=O)CSC1=O | -58.7
6 | Cc1ccc(C)c(NC(=O)COC(=O)CCNC(=O)c2ccco2)c1 | 3.11
7 | Cc1nc(C(=O)NCc2ccccc2)sc1C1(C)CC(c2cccnc2)=NO1 (centres unmarked) | -16.8
8 | COc1ccc(NC(=O)COC(=O)CC2CC3CCC2C3)c([N+](=O)[O-])c1 (centres unmarked) | 8.39
9 | CC(=O)Nc1ccc(NC(=O)C(C)OC(=O)CC2CCCC2)cc1 (centres unmarked) | 1.44
10 | O=C1CSc2ccc(C(=O)N3CCN(c4ccccn4)CC3)cc2N1 | -20.5
11 | O=C(Oc1ccc2c(c1)OCO2)C12CC3CC(CC(C3)C1)C2 | 23
12 | CCc1ccc(NC(=O)C2CCN(S(=O)(=O)c3ccc4[nH]c(=O)ccc4c3)CC2)cc1 | 3.6
13 | CCCCC1(Br)C(=O)N(c2ccccc2)N(c2ccccc2)C1=O | 7.13
14 | N#CC1=C(N)Nc2nc3ccccc3n2C1c1ccc(F)cc1 (centres unmarked) | 25.6
15 | COc1ccc(C/C(C)=N/NC(=O)c2cccnc2)cc1 | -14.9
16 | CCn1cc(CN2CCC(Oc3ccc(C(=O)N4CCCCC4)cc3)CC2)cn1 | -5.09
17 | O=C(CS(=O)(=O)Cc1ccccc1)NCc1ccco1 | 12.3
18 | Cc1nc(Nc2ccc(S(N)(=O)=O)cc2)sc1C(=O)Nc1ccccc1 | 11.2
19 | COc1ccc2cc(C(=O)N3CCc4ccccc43)[nH]c2c1 | 16
20 | COc1ccc2oc(C(=O)Nc3nc(-c4ccccn4)cs3)c(C)c2c1 | 2.33
21 | COc1ccc(C2CC(C(F)(F)F)n3nc(C(=O)O)c(Br)c3N2)cc1 (centres unmarked) | 20.8
22 | C=CC[n+]1c(C)csc1Nc1ccc(C(=O)O)cc1.[Br-] | 8.51

Row | SMILES | hERG current change (%, negative = inhibition) at 10uM [%]
23 | COc1ccc2cc(C3NC(=O)c4ccccc4N3)c(Cl)nc2c1 (centres unmarked) | 7.78
24 | Cc1cc2nc(C3CCN(CC4COc5ccccc5O4)CC3)[nH]c2cc1C (centres unmarked) | -73.9
25 | Cc1cc(C)c(NC(=O)CS(=O)CC(=O)NC2CCCc3ccccc32)c(C)c1 (centres unmarked) | 13.6
26 | NC(=O)c1ncn([C@@H]2O[C@H](CO)[C@@H](O)[C@H]2O)c1O | 0.565
27 | Cc1c(C)c2ccc(OCC(=O)Nc3nccs3)cc2oc1=O | -20.2
28 | COc1ccc2nc(N(CCN(C)C)C(=O)c3ccc4ccccc4c3)sc2c1.Cl | 5.4
29 | Cc1cc(NC(=O)c2ccc3c(c2)OCO3)ccc1NC(=O)c1ccccc1 | 19.1
30 | Cc1c(C(c2cc(O)ccc2Cl)c2c(C)n(C)n(-c3ccccc3)c2=O)c(=O)n(-c2ccccc2)n1C | 7.78
31 | O=C(Nc1ccc2c(c1)ncn2C1CCCCC1)c1ccco1 | -15.1
32 | COc1cc(/C=C2\C(=N)N3N=C(S(C)(=O)=O)SC3=NC2=O)ccc1OS(=O)(=O)c1ccc(C)cc1 | 6.9
33 | CCCOc1ccc(C(=O)N2CCN(c3ccc(N)cc3Cl)CC2)cc1 | -31.7
34 | Cc1cc(OCCCCCn2ccnc2)cc(C)c1Cl.Cl | -19.2
35 | CCc1ccc(NC(=O)CN(c2ccc(OC)cc2)S(=O)(=O)c2c(C)[nH]c(=O)[nH]c2=O)cc1 | 9.73
36 | O=C(CN1C(=O)c2ccccc2S1(=O)=O)NCc1c(F)cccc1F | 2.88
37 | CCOC(=O)N=Nc1c(O)n(CC(=O)OC)c2ccccc12 | 5.95
38 | CC(=O)c1cccc(NC(=O)c2ccc(NC(=O)CC3SC(N4CCCCC4)=NC3=O)cc2)c1 (centres unmarked) | 10.3
39 | CCN1CCN(C(c2cccnc2)c2cc(Cl)c3cccnc3c2O)CC1 (centres unmarked) | -72.4
40 | CCN1CCCC1CNc1ncnc2c1[nH]c1ccc(F)cc12 (centres unmarked) | -76.6
41 | CN(C)CCNC(=O)/C(=C/c1ccc(-c2ccc(Cl)cc2Cl)o1)NC(=O)c1ccccc1 | -55.1
42 | O=C(Nc1nccs1)OCc1ccccc1 | 14.5
43 | Cc1ccc2nc(NC(=O)CN3CCN(c4ccccn4)CC3)sc2c1 | -9.91
44 | COc1cccc(OCc2cc(C(=O)NCCc3cccc(C)n3)no2)c1 | -1.21
